Measured values as given in article PMC12136788.
This is one part of the list.

B1: chr2:40113585:40113686:-|3pUTR|ENSG00000183023|msi1|FALSE|unique (ssRNA)
RNA: GGGAGUUCUACAGUCCGACGAUCUCAUUUUAUUUUUUUACUUAAAAGGCUAUUUUGAGCCCUGUUUCUUUCACUGUCCAGUCUAGUCCUCUUUGAUUAUAUCAGUAGUUGCUGAGUAAGAAAGAAGCCAGGGUGACCAACGGGCAACAGAGGAUUGAGCAUCA
B2: chr4:41013971:41014072:-|CDS|ENSG00000163697|msi1|FALSE|unique (ssRNA)
RNA: GGGAGUUCUACAGUCCGACGAUCGCAGGACCCCAACAAAAACCUGAGCCCCACUGCAGUCAUCAACAUAACUUCUGAGAAGUUAGAGGGUAAAGAGCCCCACCCACAGGAUUCCUCGAGCUGUGAGAUUUUACCCUCCCAGCCCAACAGAGGAUUGAGCAUCA
B3: chr5:138184526:138184629:+|CDS|ENSG00000112984|unk|total|mutant (ssRNA)
RNA: GGGAGUUCUACAGUCCGACGAUCGUGCAUGCCCCACCUAUGCAACUGGGAUUCCCAUCCCUGCACUCGUUCAUCAAGGAACACCGUCUUCAGGUAUCCCCCAGCUCCGAGAAAGGGGCUAAGGCAGACACAGGCCUUGAUGAUCAACAGAGGAUUGAGCAUCA
B4: chr9:34253332:34253433:-|3pUTR|ENSG00000186638|unk|FALSE|unique (ssRNA)
RNA: GGGAGUUCUACAGUCCGACGAUCCUCUGAAACAGAAUUCACACACAAACCUUCAGCCAAGUUCUGCCUGCUGUGUAUCUUUUUAGCAGGAAGCAGCUCAGGACAGGGAAGACAAAGUAGCCUCCAGGUGCCAAUUACUUUAAACAACAGAGGAUUGAGCAUCA
B5: chr19:7926739:7926850:-|3pUTR|ENSG00000104980|unk|total|mutant (ssRNA)
RNA: GGGAGUUCUACAGUCCGACGAUCAGGGUGGGACCCGGGACCCGCGGCUCAGUGGCCCGCCCGCCACGUCAGCCAAGCCACUUCCGGUCCAUUUUUUAAUUUUAACAGUGCUCUUCCAUCUUGUGCAUAAGCCUGAGAUUUGGACAACAGAGGAUUGAGCAUCA
B6: chr20:37241422:37241523:+|3pUTR|ENSG00000118705|msi1_unk|FALSE|overlapping (ssRNA)
RNA: GGGAGUUCUACAGUCCGACGAUCGUAUGAGAAGAAAAAUGGAAAAAAAAAACUUUAUUUAAAAAAGAAAAAAGUCCAGAUUGUAGUUAUACUUUUGCUUGUUUUUCAGUUUCCCCAACACACAGCAGAUACCUGGUGAGCUCACAACAGAGGAUUGAGCAUCA
B7: chr10:72012227:72012328:+|3pUTR|ENSG00000122863|msi1|FALSE|unique (ssRNA)
RNA: GGGAGUUCUACAGUCCGACGAUCCAAUGGAAGGAGCUUCAGCAGGAGGUCCUUCCCAGAAGGUUGAUUCUUGGCCUGGGUGGUAGAGGAGAUAUCCUGACCCUAAAGUCUUCCAGCCCCGGGUCAUCCUCUCCUAUACUAGGGCAACAGAGGAUUGAGCAUCA
B8: ENSG00000173273:stop:overlap|stop_codon|ENSG00000173273|stop_codon|NA|stop_codon (ssRNA)
RNA: GGGAGUUCUACAGUCCGACGAUCACCAGAUCAUGAAGCCAGAAGCCCCUUCCCAGACCGCAACAGCCGCAGAGCAGAAGACCUAGUGAAUGCCUGCUGGUGAAGGCCAGAUCAGAUUUCAACCUGGGACUGGAUUACAGAGGACAACAGAGGAUUGAGCAUCA
B9: chr13:24434660:24434761:-|CDS|ENSG00000102699|unk|total|mutant (ssRNA)
RNA: GGGAGUUCUACAGUCCGACGAUCCCCUCUGCUUCCUCUCCUUUUCAUUUUCAACCUUCCGCAGCCUCUUUGACUGCCAACCUCCGGCUGCCAAUGGCCUCUGCUUUACCUGAGGCUCUUUGCAGUCAGUCCCGGACUACCCCACAACAGAGGAUUGAGCAUCA
B10: ENSG00000112335:stop:overlap|stop_codon|ENSG00000112335|stop_codon|NA|stop_codon (ssRNA)
RNA: GGGAGUUCUACAGUCCGACGAUCAGGCAAGGAGUCAUGGAAGGACGUGGUGUGCUCAGAAUGAUGAAAAGUUAUUUUGUGACUAGAAAGUCGUAGUUCCCCCGCUCCCUGGGAAAGCGUUUUUGCGUCAGCUUCCUUUUAGAGCAACAGAGGAUUGAGCAUCA
B11: chr15:63774837:63774950:-|CDS|ENSG00000103657|unk|total|mutant (ssRNA)
RNA: GGGAGUUCUACAGUCCGACGAUCGUAACAACAUUUCUUAAAGGAGUCACUAUUCCUAAUUCUGGGGCAGACACUUCCGGUCGCCGAUCCGCUUCUGAGUUGCUGCUUGGUUUGGCAGCUCAACGAGGCUCAUUGCGAUAUCUUCAACAGAGGAUUGAGCAUCA
B12: chr1:158329851:158330130:-|CDS|ENSG00000158485|control|control|control (ssRNA)
RNA: GGGAGUUCUACAGUCCGACGAUCCAUAGCAGGCUGUGAGCUACAUUCUGGAGGUGCCAUAGUAAGCUUCCUGAGGGGAGCUCUAGGAGGAUUGGAUUUCCUGAGUGUCAAGAAUGCUUCAUGUGUGCCUUCCCCAGAAGGUGGCAACAGAGGAUUGAGCAUCA
B13: chr8:18529670:18529771:-|3pUTR|ENSG00000156011|msi1|FALSE|bound_elsewhere (ssRNA)
RNA: GGGAGUUCUACAGUCCGACGAUCUAAAGCCAUGGAGUUUAUAAAGCCAAGUAACCAUUUGAUAUGGAUAAUAAUAUCUACUCUAGAGAGAGUAUAUAUAUGCACAUUGAUUUUUAAUGCUGUUAAGAUACUUUUGUAAAACUGCAACAGAGGAUUGAGCAUCA
B14: chr2:209733988:209734100:+|3pUTR|ENSG00000078018|unk|FALSE|unique (ssRNA)
RNA: GGGAGUUCUACAGUCCGACGAUCUCUGAUAAUUCUAGAGCCUGUUACCAUAGAAAGGCAUUUCUUCAAUGGCUGGUUGUAGUUAGUUCAUGUUUUUCAAUCAAAUUUGCAAAUGUAUUUGUUGCUGUAUAGUGAUUGUUUUGCCAACAGAGGAUUGAGCAUCA
B15: chr6:108211900:108211976:-|3pUTR|ENSG00000112335|msi1_unk|FALSE|overlapping (ssRNA)
RNA: GGGAGUUCUACAGUCCGACGAUCGUUGACAAGAAGUUAAUUUGCUUUAGUAAAAAUCCCUCAUUCCAGCCUUUCUAUAUAAAUAGCUCUUUCUUGCUGUUUUAAUGUGGUGCACACUAUAGCCUCACAAACCUGUUAUUCCAGCAACAGAGGAUUGAGCAUCA
B16: chr7:20412070:20412171:+|3pUTR|ENSG00000105855|msi1|FALSE|unique (ssRNA)
RNA: GGGAGUUCUACAGUCCGACGAUCCUUUUUUUUUAUAAUAAACUUCCAAGAUUUGCUGUCUUCCAGCACUUGAGUUAAAGUACUAGAUACUGCAUUUUGAUGAAGACUAACCCCAUCUCAUAUUCUACCCUAAAGAGAACUGAACAACAGAGGAUUGAGCAUCA
B17: ENSG00000198589:be:win_5051|CDS|ENSG00000198589|bound_else_gene|NA|bound_elsewhere_windowed (ssRNA)
RNA: GGGAGUUCUACAGUCCGACGAUCGCUUGGUUAACAUACCAGCAGAUGGAGUCACAGUGGAUCCUGCCCUUCUGCCACCAGCCUGCCUUGGAGCCCUUGGUGAUCUAUCUGUGGAACAACCCGUGCAGUUCAGAUCUUUUGACACAACAGAGGAUUGAGCAUCA
B18: chr8:81702113:81702224:-|3pUTR|ENSG00000104231|unk|total|mutant (ssRNA)
RNA: GGGAGUUCUACAGUCCGACGAUCGUACCGCCUUGCUGUCUGUCUACAUCAUGAUGUAUAAAUUGAUAUAUCUACAUGAAUUACCGAAACUCCGAAGUGAUCUUUAUUCAGUCUUAUAAUUUUUACAUGAAGAAUCUCCGGCCUCAACAGAGGAUUGAGCAUCA
B19: chr1:66374421:66374522:+|3pUTR|ENSG00000184588|msi1|total|mutant (ssRNA)
RNA: GGGAGUUCUACAGUCCGACGAUCACUGCAUUGUUUCAGGUGGACAUUUUAUCAUUUUCAAAUGUUUCUCACAAUGUAUGUUACCGUAUUAUUAUUAUAUAUUGUGUUCAAAUGCAUUCUAAAGAGACUUUUAUAUGAGGUGAACAACAGAGGAUUGAGCAUCA
B20: ENSG00000110906:stop:overlap|stop_codon|ENSG00000110906|stop_codon|NA|stop_codon (ssRNA)
RNA: GGGAGUUCUACAGUCCGACGAUCGCUGCCUCCCUUUACUCCCAGUCCCAUUUACAAAAAUAACGUUUGUGUUUUACCAGUUAUAGUUGUAGUACCCAUUCAUUAUAGAAAAUCUGGAAAAGCUAGACAAUUCUUUUUCAGUUUCAACAGAGGAUUGAGCAUCA
B21: chr10:62096657:62096758:+|3pUTR|ENSG00000150347|msi1|total|mutant (ssRNA)
RNA: GGGAGUUCUACAGUCCGACGAUCACCUCUAUGCUCUGUAAGGUGAUUAUUUGUAUACCGCAACAUGGCCCAGUGAUAUUAUACCGUUUCCCAAUGGAGAGGUUAUUGAGUAACCUUUGCAUCCGUUUAAACACUACCAGAAGACAACAGAGGAUUGAGCAUCA
B22: chr6:43287355:43287456:+|3pUTR|ENSG00000146216|unk|total|mutant (ssRNA)
RNA: GGGAGUUCUACAGUCCGACGAUCUAUGACUCCUGGUGCCCAGGCCCUGGGCCUGCUCCUUGCCACCAACCGAACCGUGAAUGCCGGGCCCCCAGCCUCACCUCUGCCCCAGGACCAACAACACCCUGGUUUGGAGCUGGGAGGCAACAGAGGAUUGAGCAUCA

Each binder was assayed against MSI1 full-length (mouse, UniProt Q61474 1-362) (assay: nsRBNS (natural sequence RNA bind-n-seq); RBNS binding buffer (assumed for nsRBNS): 25 mM Tris pH 7.5, 150 mM KCl, 3 mM MgCl2, 0.01% Triton X-100, 500 ug/ml BSA, 20 U/ml SUPERase-In, 4 C; UNK is unkempt and MSI1 is Musashi-1; names of the RNAs are library labels; protein concentration not given here; high values mean tight binding).
Chain of UniProt Q61474 (Q61474 whole entry): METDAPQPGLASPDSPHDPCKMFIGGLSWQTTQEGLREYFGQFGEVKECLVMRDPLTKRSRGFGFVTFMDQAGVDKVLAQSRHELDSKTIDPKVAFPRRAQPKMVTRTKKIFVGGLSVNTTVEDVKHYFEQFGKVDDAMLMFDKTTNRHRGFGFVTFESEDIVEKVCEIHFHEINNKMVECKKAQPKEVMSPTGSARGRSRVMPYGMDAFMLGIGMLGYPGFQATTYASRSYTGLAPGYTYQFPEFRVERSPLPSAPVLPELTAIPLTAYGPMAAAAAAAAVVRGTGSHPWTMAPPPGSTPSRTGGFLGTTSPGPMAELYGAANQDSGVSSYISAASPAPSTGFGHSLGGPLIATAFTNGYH
B1 was tested, and the binding signal was 1.73 enrichment R.
B2 gave a binding signal of 0.526 enrichment R.
B3 gave a binding signal of 0.32 enrichment R.
In the case of B4, the binding signal is reported as 0.755 enrichment R.
B5 gave a binding signal of 0.477 enrichment R.
B6 was tested, and the binding signal was 1.41 enrichment R.
Binder B7 has a binding signal of 0.344 enrichment R.
In the case of B8, the binding signal is reported as 1.3 enrichment R.
B9 showed a binding signal of 0.763 enrichment R.
With B10 the binding signal was 0.354 enrichment R.
Binder B11 has a binding signal of 0.406 enrichment R.
B12 was tested, and the binding signal was 0.498 enrichment R.
For B13, the binding signal was 0.574 enrichment R.
Work on B14 yielded a binding signal of 2.97 enrichment R.
Binder B15 has a binding signal of 1.23 enrichment R.
For B16, the binding signal was 0.785 enrichment R.
B17 was tested, and the binding signal was 0.536 enrichment R.
B18 was tested, and the binding signal was 0.94 enrichment R.
B19 was tested, and the binding signal was 0.538 enrichment R.
In the case of B20, the binding signal is reported as 0.671 enrichment R.
For B21, the binding signal was 0.358 enrichment R.
B22 was tested, and the binding signal was 0.465 enrichment R.
